# Assay results as given in PubChem BioAssay AID686979 (National Center for Advancing Translational Sciences (NCATS), 2013).
# The whole screen tested about 420,000 compounds, of which about 50,000 (12%) were called active. The inconclusive results got no clear call from the source; some entries with a clear call stand among them for comparison. Calls come from the whole dose curve; as a rule, active = well fitted inhibition curve with a large enough effect; inconclusive = small, poorly fitted or top-dose-only effect; inactive = flat fitted curve, though single readings scatter. Potencies of inconclusive entries are left out as doubtful fits.
# Experiment: qHTS for Inhibitors of human tyrosyl-DNA phosphodiesterase 1 (TDP1): qHTS in cells in presence of CPT; note: nearly all actives have a fitted effect of over 55% in size
# Conditions: chicken DT40 Tdp1-/-;hTDP1 cells + 20 nM CPT, ATP luminescence, 48 h; activity change, negative = growth inhibition: at 46.2 µM (top of the series) unless noted
# In short: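 Cell growth measured by CellTiter-Glo luminescence after a minimum 48 h, 37 C compound exposure with 20 nM CPT in Tdp1-knockout DT40 cells stably expressing hTDP1, seeded 400/well; qHTS titration format.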
# % is set by controls: 0 for no effect and ±100 for the full control effect; potency is the fitted concentration of half-maximal effect; tags give direction and shape of the fitted curve.
SMILES,Potency,"activity change, negative = growth inhibition"
C=C(C)CN(CC)C(=O)COc1ccc(S(=O)(=O)Nc2ccc(OC)cc2)cc1,"inconclusive [inhibitor, partial curve]",
CCCCCCCCNS(=O)(=O)CCNCc1ccccc1,"inconclusive [inhibitor, single point]",
O=C(c1cc(S(=O)(=O)N2CCOCC2)ccc1F)N(Cc1nnc(-c2ccccc2Cl)o1)C1CC1,"inconclusive [inhibitor, single point]",
CC1CCCCC12NC(=O)N(CC(=O)NCc1ccco1)C2=O (centres undefined),inactive,
O=c1[nH]c(=O)c2nc3c4ccccc4c4ccccc4c3nc2[nH]1,active: 8.2 µM,
Cc1ccc(-c2nnn(CC(=O)Nc3ccccc3-c3ccccc3)n2)c(-n2cnnn2)c1,"inconclusive [inhibitor, single point]",
COc1ccc2[nH]cc(C(=O)CNc3nccs3)c2c1,"inconclusive [inhibitor, single point]",
CCCNC(=O)c1ccccc1NS(=O)(=O)c1ccc(OC)c(OC)c1,inactive,
Oc1c(Br)cc(Br)cc1CNc1cccc2cccnc12,active: 16.4 µM,
Cc1ccc(N/C=C(/C#N)c2ccsc2)cc1C,"inconclusive [inhibitor, single point]",
O=[N+]([O-])c1ccc(C2CCCC/C2=N\OCc2cccc(F)c2)c([N+](=O)[O-])c1 (centres undefined),"inconclusive [inhibitor, single point]",
Nc1c(NC2CCCCC2)c2ccccc2oc1=O,"inconclusive [inhibitor, single point]",
O=S(=O)(c1ccccc1)N1CCC2(CCN(c3ccncc3)CC2)CC1,active: 11.6 µM,
CCOC(=O)C1CCCN(C(=O)c2cccc(S(=O)(=O)N(Cc3ccccc3)c3ccccc3OC)c2)C1 (centres undefined),active: 23.1 µM,
COc1ccc(-n2nnnc2C2c3ccccc3C(=O)N2C2CCN(Cc3ccccc3)CC2)cc1 (centres undefined),"inconclusive [inhibitor, single point]",
CC(=O)Nc1cccc(-c2ccnc3c2CC(C)(C(=O)Nc2ccc(Cl)c(C(F)(F)F)c2)O3)c1 (centres undefined),active: 10.3 µM,
CC(=O)Nc1cc(-c2ccc(C(=O)NC3CC3)cc2)cn2c(-c3cccc(C(C)=O)c3)cnc12,"inconclusive [inhibitor, single point]",
COc1ccc(CCNC(=O)CNCC2CCCCC2)cc1OC,inactive,
Nc1nc(Cl)c2ncn(C3OC(CO)C(O)C3O)c2n1 (centres undefined),"inconclusive [inhibitor, partial curve]",
CCOC(=O)c1ccc(N2CCOCC2)c(NC(=O)c2ccc3c(c2)OCO3)c1,inactive,
CCNC(=O)Cn1c(=O)c(=O)n(Cc2ccccc2)c2ccc(Cl)cc21,"inconclusive [inhibitor, partial curve]",
CNCCCOc1cc2nc(N3CCCN(C)CC3)nc(NC3CCN(C)CC3)c2cc1OC,"inconclusive [inhibitor, single point]",
NC(=O)SCC(=O)Nc1cccc(Cl)c1,"inconclusive [inhibitor, single point]",

SMILES,Potency,"activity change, negative = growth inhibition"
CCN(CC)C(=O)CSc1nc2sc3c(c2c(=O)n1CCCOC)CCC3,"inconclusive [inhibitor, single point]",
O=C(CSc1nnnn1C1CCCCC1)Nc1ccccc1N1CCOCC1,"inconclusive [inhibitor, single point]",
Cc1cccc(N2CCN(C(=O)NC(C)c3ccc(F)c(F)c3)CC2)c1C (centres undefined),"inconclusive [inhibitor, single point]",
CCCCN1C[C@H](c2ccc(Br)cc2)[C@@H](CC(=O)Nc2ccc(Br)cc2)C1=O,"inconclusive [inhibitor, single point]",
Clc1ccc2c(c1)C(c1cccs1)=NNC(c1cccnc1)=N2,inactive,
CC(C)C(=O)N1CCC1(C)C(=O)Nc1cc(-c2ccccc2)nn1C (centres undefined),,inconclusive: -33.4% [inhibitor]
CC(C)c1cc(C(=O)N2CCCC(N3CCN(c4ccc(F)cc4)CC3)C2)n(C)n1 (centres undefined),active: 16.4 µM,
COc1ccccc1CNC(=O)c1cc(Sc2cccc(Cl)c2)nc2ccccc12,"inconclusive [inhibitor, single point]",
COc1cc(OC)cc(-c2oc(=O)c3cc(OC)c(OC)cc3c2/C=C/c2ccc(F)cc2)c1,"inconclusive [inhibitor, single point]",
O=C1CCC(=O)N1c1ccc(S(=O)(=O)N2CCCC2)cc1,"inconclusive [inhibitor, single point]",
CCOC(=O)c1nc(N2CCN(C(=O)OCC)CC2)c2c3c(sc2n1)CCCC3,active: 16.4 µM,
CC1(CCc2ccc3c(c2)OCO3)NC(=O)c2ccccc2N1 (centres undefined),active: 23.1 µM,
CCCN(CC1CC1)c1nc(C)nc(Nc2c(Cl)cc(Cl)cc2Cl)c1Cl,"inconclusive [inhibitor, single point]",
COc1ccc(CSc2nc3ccccc3c(=O)n2CCCN2CCOCC2)cc1F,"inconclusive [inhibitor, single point]",
Cc1nc(NCCC(C)C)c2nnn(Cc3ccccc3)c2n1,"inconclusive [inhibitor, full curve]",
C/C(CC1CC(COCC(C)C)OC1=O)=N\Nc1nc(-c2ccccc2)cs1 (centres undefined),"inconclusive [inhibitor, single point]",
CCC(C(=O)NCc1ccc(C)cc1)c1ccccc1 (centres undefined),inactive,
CN(CCOc1ccccc1)C(=O)c1ccc(N2CCCC2)c([N+](=O)[O-])c1,inactive,
CCCCc1ccc(C(=O)Nc2ccc3nc(N(CC)CC)cc(C)c3c2)cc1,"inconclusive [inhibitor, single point]",
FC(F)(F)c1cnc(NNC(=S)Nc2ccccc2Cl)c(Cl)c1,"inconclusive [inhibitor, partial curve]",
O=C(Nc1ccc(-c2cn3c(n2)SCC3)cc1)c1ccc2ccccc2n1,active: 16.4 µM,
O=C(NCCCn1ccnc1)c1ccc(-c2ccccc2)cc1,"inconclusive [inhibitor, single point]",
Cc1csc(NC(=O)c2cc3c(C)nn(Cc4ccccc4Cl)c3s2)n1,"inconclusive [inhibitor, single point]",

SMILES,Potency,"activity change, negative = growth inhibition"
Cn1c(SCC(=O)c2ccc(F)cc2)nc2cccnc21,"inconclusive [inhibitor, single point]",
COc1cc(CN2C(=O)C(CCc3ccccc3)ON=C2c2cnccn2)cc(OC)c1 (centres undefined),"inconclusive [inhibitor, single point]",
CC(=O)N1CC[n+]2c(-c3ccc(Cl)cc3)csc21,active: 25.9 µM,
O=C(NCc1ccco1)c1ccc2c(=O)n(CC3CCCO3)c(=S)[nH]c2c1 (centres undefined),inactive,
Cc1c(C(=O)N2CCCC2)oc2c1-c1nn(CC(=O)NCc3cccc(F)c3)cc1CC2,"inconclusive [inhibitor, single point]",
Cc1ccc2c(c1)N(C(=O)N1CCC(C(=O)NCCC3=CCCCC3)CC1)CC(C)O2 (centres undefined),"inconclusive [inhibitor, single point]",
Cc1cccc(C(=O)NC(C)C2CC3CCC2C3)c1 (centres undefined),inactive,
O=C(c1cc2ccccc2cc1O)N1CCN(c2ccccn2)CC1,"inconclusive [inhibitor, single point]",
CCCCCCC(=O)N1C/C=C\C(c2ccc(OC)cc2)N(Cc2ccc(F)cc2)C(=O)[C@H]1Cc1ccccc1 (some centres undefined),active: 18.4 µM,
Cc1ccc(NC(=O)CSc2nn(-c3ccccc3)c(=S)s2)cc1S(=O)(=O)N(C)C,active: 5.17 µM,
COc1ccc(CNC(=O)Cn2nc(C(F)(F)F)c(Br)c2C)cc1,inactive,
O=C(CCN1CCN(Cc2ccccc2)CC1)Nc1cccc(Cl)c1,"inconclusive [inhibitor, single point]",
CC(C)c1ccc(CC(=O)N2CCC2(C)C(=O)Nc2ccccc2)cc1 (centres undefined),"inconclusive [inhibitor, single point]",
COc1ccc(C(=O)Nc2ccc(S(=O)(=O)N3CCCCC3)cc2)cc1,"inconclusive [inhibitor, single point]",
OCc1cnc(SCc2cccc(F)c2)n1Cc1ccc(F)cc1,active: 20.6 µM,
CC(C)(C)C(=O)Nc1ccc(S(=O)(=O)NC2=NCCCCC2)cc1,,inconclusive: -34.5% [inhibitor]
CSc1ccc(CN2CCC(C)(Oc3ccccc3C)C2)cc1 (centres undefined),"inconclusive [inhibitor, single point]",
CSc1c(CC(=O)Nc2ccccc2)n(Cc2ccccc2)c2ccccc12,"inconclusive [inhibitor, partial curve]",
Cc1ccccc1Nc1ncnc2c1c(-c1ccccc1)cn2-c1ccc(F)cc1,"inconclusive [inhibitor, single point]",
N#Cc1cc2c(nc1SCC(=O)Nc1sc3c(c1C#N)CCC3)CCCC2,,inconclusive: -34.1% [inhibitor]
CCOc1ccc(CCNc2ncnc3onc(-c4ccc(F)cc4)c23)cc1OCC,"inconclusive [inhibitor, single point]",
Cc1ccc2oc(C(=O)N(Cc3ccc(N(C)C)cc3)C3CCS(=O)(=O)C3)c(C)c2c1 (centres undefined),"inconclusive [inhibitor, single point]",
O=S(Cc1ccc(Cl)cc1)CC(O)COCc1ccc(Cl)cc1 (centres undefined),"inconclusive [inhibitor, partial curve]",
